Some of the results follow.
System: T1, C. trachomatis L2/434/Bu expressing GFP (CTL2-GFP)
T1 construct: L2/434/Bu GFP intracellular growth in HeLa cells
Parameters: species or system HeLa; C. trachomatis total inclusion area by high-content imaging, normalised to DMSO
Settings: total inclusion area; 28.5 h, 10 µM; inhibitor
Procedure, shortened: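 Bulk GFP and resorufin signals were read first. Wells were then fixed, stained with Hoechst and imaged to detect GFP inclusions and host nuclei. MICs followed the previously described calculation.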

Compound | % of control remaining
Cc1cc2c(o1)c1cnn(CC(=O)N3CCCCCC3)c(=O)c1n2C [CBK284219] | 84.5677
Cc1ccccc1COc1cccc(Cl)c1Cl [CBK002607] | 35.998
COc1cccc(C(=O)NCCC(=O)N2CCc3ccccc3C2)c1 [CBK307575] | 52.452
Nc1ncc(-c2ccco2)nc1NC1CCOCC1 [CBK063806] | 107.57
CC(CC(=O)O)CC(=O)N1CCN(c2ccccn2)CC1 (stereo not drawn) [CBK286839] | 62.2184
Cc1cc(CC(=O)N2CCN(c3ncccn3)CC2)on1 [CBK144507] | 81.8396
Cc1nccn1CCNC(=O)c1c2c(nn1C)CCCC2 [CBK281857] | 81.0767
CCC(=O)N1CCCC1c1nc(C)c2c(n1)N(Cc1ccc(F)cc1)CCC2 (stereo not drawn) [CBK286247] | 108.373
N/C(=N\OCC(=O)Nc1ccc(-n2cnnn2)cc1)c1nonc1N [CBK265331] | 94.4248
CC(=O)NCC(=O)N1CCC2(CC1)CC(=O)c1cc(Br)ccc1O2 [CBK156447] | 83.8731
O=C(c1cnc2ccccc2n1)N1CCC(F)CC1 [CBK200264] | 127.647
CCN(CCO)c1ccc(Nc2nc(Br)cn3ccnc23)cc1 [CBK037475] | 92.9854
O=C(O)c1cnc(NCC2CCCCCC2)[nH]c1=O [CBK023792] | 32.8474
COc1ccc(-c2cc(C(=O)Nc3nc4ccc(S(C)(=O)=O)cc4s3)c3ccccc3n2)cc1 [CBK033551] | 102.209
COc1ccc(-c2nc(NC(=O)C3CCC(OC)CC3)cnc2-c2ccc(F)cc2)cc1 (stereo not drawn) [CBK037004] | 96.112
O=C(CSc1nc[nH]n1)Nc1ccc(-c2nc3ccccc3s2)cc1 [CBK267146] | 108.93
COCCn1c(CO)nnc1[C@H]1C[C@H](NC(=O)c2ccc(F)cc2F)C1 [CBK306665] | 12.3139
O=C(c1cccc(C(F)(F)F)c1)N1CCN(C(=O)c2ccc3c(c2)CCC3)CC1 [CBK298300] | 150.436
CCC(C(=O)Nc1nccs1)N(C)Cc1c(C)nn(C(C)C)c1C (stereo not drawn) [CBK307402] | 58.5218
COCOc1ccc(-c2ncc(OC)nc2NC(=O)c2cc3ccccc3s2)cc1 [CBK145250] | 107.441
COc1cccc(Oc2nccnc2-c2ccsc2)c1 [CBK106762] | 76.9028
COCc1cccc(-c2ncc(OC)nc2NC(=O)c2c(C)noc2C)c1 [CBK145237] | 83.0406
O=S(=O)(Nc1nnn[nH]1)c1cccc2nsnc12 [CBK062379] | 95.9733
Cc1cc(CN2CCCC2)cc(C)c1O [CBK028736C] | 43.7858
CN(C)S(=O)(=O)c1ccc(C(=O)Nc2ccc(N3CCOCC3)c(Cl)c2)cc1 [CBK267383] | 89.1542
CC(C)CC12CN3CCN(CC(C3)/C1=N\N=C1/C3CN4CCN(C3)CC1(CC(C)C)C4)C2 [CBK265036] | 92.9977

Compound | % of control remaining
Cc1ccccc1CSCCNC(=O)Nc1ccc(Cl)cc1 [CBK268669] | 107.699
c1cncc(COc2cncc(OC3CCNC3)n2)c1 (stereo not drawn) [CBK077419T] | 97.0675
CN1CCC(=NNC(=O)c2cc(O)c(O)c(O)c2)CC1 [CBK262660] | 96.0442
CCCCN(C)c1c(CC)nc2ccc(C(=O)N3CCNC(=O)C3)cn12 [CBK145460] | 95.048
Cc1ccnc(SCC(=O)c2cc(C)n(C3CC3)c2C)n1 [CBK304686] | 111.665
O=S(=O)(c1ccccc1)c1nc(N2CCNCC2)cn2ccnc12 [CBK154875T] | 109.364
CC(=O)Nc1nc(-c2cc3ccccc3oc2=O)cs1 [CBK287312] | 77.7372
CC(=O)Nc1ccc(-c2nc3ccc(-c4nc5ccc(NC(C)=O)cc5[nH]4)cc3[nH]2)cc1 [CBK261165] | 63.4789
Cc1cnc(C(=O)N[C@H]2C3CCCCC3[C@@H]2c2ccccc2)cn1 (stereo partly drawn) [CBK285125] | 106.637
Cn1ccnc1C(NC(=O)c1ccccn1)c1ccc(F)c(F)c1 (stereo not drawn) [CBK283783] | 99.9449
CCOc1ccc(-c2n[nH]c(C(=O)N/N=C3/C(=O)Nc4ccccc43)c2C)cc1 [CBK262889] | 106.027
O=C(c1ccc(F)cc1)C1CCN(Cc2ccc3ccccc3c2)CC1 [CBK149122] | 95.0583
CCn1cc(C(=O)N2C[C@H](C(=O)OC)[C@@H](c3ccccc3F)C2)cn1 [CBK283510] | 112.858
c1ccc(CN2CCC(N3CCC(N4CCc5ccccc5C4)CC3)CC2)cc1 [CBK264730G] | 98.7247
O=C(O)CC1C(=O)NCCN1Cc1ccc(F)c(F)c1 (stereo not drawn) [CBK270008] | 94.9219
N[C@H]1CCN2C(=O)c3cc(-c4ccc(F)cc4F)ccc3NC(=O)[C@H]12 [CBK289345] | 118.741
COc1cccc(N2CCN(CC(=O)N3CCC(C(N)=O)CC3)CC2)c1 [CBK202881] | 88.6656
CSc1ccc(-c2nccnc2OC(c2ccccc2)c2ccccc2)cc1 [CBK106797] | 96.1102
COc1ccc2c(c1)C(C(C(=O)O)C(=O)O)c1ccccc1O2 (stereo not drawn) [CBK266435] | 107.781
O=C(OCc1ccc(S(=O)(=O)c2ccccc2)cc1)c1cc(O)nc2ccccc12 [CBK266782] | 89.8925
CN(C)CCN(C)c1cncc(-c2cccc(N(C)C)c2)n1 [CBK065659] | 64.5557
CCC1(CC)OC(N[C@@H](C)c2ccc(Cl)cc2)=NC1=O [CBK126666] | 132.177
O=C(CN1C2CCC1CC(O)(c1ccco1)C2)Nc1ccc(F)cc1 (stereo not drawn) [CBK284062] | 73.969
Cc1c(C(=O)Nc2nc(-c3ccc(S(=O)(=O)N4CCOCC4)cc3)cs2)oc2ccc(Cl)cc12 [CBK267663] | 93.5072
COc1ccc(NS(=O)(=O)c2ccc3c(c2)N(CC(=O)O)C(=O)CO3)cc1NS(C)(=O)=O [CBK297745] | 93.007

Reference: article PMC12040169 (PLOS Biology, 2025)
